# Measurements taken from PubChem BioAssay AID2202238 (Ras Initiative Chemistry Research Team, Frederick National …, 2025).
# Fewer than 10 of roughly 2,200 compounds were called active. This is one part of the list. Where no call is shown, the source marks the result inconclusive.
# Target: GTPase KRas (Homo sapiens) (UniProt P01116)
# Assay: Fragment capture on engineered cysteines, share of protein labelled (AID 2202238)
# Design: protein at 5 µM with 500 µM competing thiol for 1.5 h
# Conditions: KRAS G12D cysteine mutants, disulfide tethering, MALDI-TOF labeling; stronger effect = higher value; H27C mutant labeling; fragment at 500 µM
# Chain of UniProt P01116 (P01116 whole entry, looked up, the tested form may be a part): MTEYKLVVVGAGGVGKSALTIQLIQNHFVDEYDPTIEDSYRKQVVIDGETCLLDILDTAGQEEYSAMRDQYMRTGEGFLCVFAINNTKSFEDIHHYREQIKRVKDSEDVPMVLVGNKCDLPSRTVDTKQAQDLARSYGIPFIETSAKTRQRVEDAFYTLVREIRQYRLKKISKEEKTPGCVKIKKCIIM
row,SMILES,percent labeling
1,O=C(CCCN1C(=O)c2ccccc2C1=O)NCCS,38.9%
2,CN(C)C(C(=O)NCCS)c1cscn1 (configuration not stated),32.2%
3,O=C(CCS)Nc1cccc(C(=O)Nc2ccc(Br)cn2)c1,12.4%
4,CN1CCC(C(=O)NCCS)C(c2ccnn2C)C1 (configuration not stated),42%
5,Cc1ccc(NC(=O)CCS)cc1-c1nnnn1C1CC1,50.1%
6,O=C(CCS)N1CCc2[nH]cc(I)c(=O)c2C1,37.2%
7,NC(=O)Nc1cccc(NC(=O)CCS)c1,44.1%
8,CCn1ncc2cc(C(=O)NCCS)c(C)nc21,44.5%
9,O=C(NCCS)c1nc(-c2ccccc2)ns1,32.7%
10,Cc1cccnc1Oc1ccc(C(=O)NCCS)cc1,17%
11,Cc1ccn(-c2cccc(C(=O)NCCS)c2)n1,40.1%
12,O=C(CCc1ccc(F)c2c1CCCC2)NCCS,20.4%
13,Cc1ccc(C(=O)NCCS)cc1N1CCOCC1,47.4%
14,O=C(CCS)Nc1ccc(-n2cnnc2)nc1,28.7%
15,CCCc1c(C(=O)NCCS)cnn1-c1ccccc1,39.1%
16,O=C(NCCS)c1nc2ccc(Br)cn2n1,50.2%
17,O=C(NCCS)c1ccc(-c2n[nH]c(C3CC3)n2)cc1,39.1%
18,O=C(CCS)NCCn1cnc2sccc2c1=O,35.8%
19,C[C@@H]1CN(c2ccccn2)C[C@H]1C(=O)NCCS,43.2%
20,O=C(CCS)NCc1c2c(n[nH]c1=O)CCCC2,37.4%
21,O=C(Cn1cnc2scc(-c3cccs3)c2c1=O)NCCS,25.5%
22,CC(C)(C)OC(=O)N1CCC(C2CCN(C(=O)CCS)CC2)CC1,42.6%
23,O=C(CCS)NCCN1CCN(c2ncccn2)CC1,37.5%
24,O=C(NCCS)c1ccc2c(c1)nnn2CCc1ccccc1,20.3%

row,SMILES,percent labeling
1,O=C(CCS)NCc1cccc(N2CCCC2=O)c1,32.7%
2,O=C(NCCS)c1ncoc1CCC(F)(F)F,37.4%
3,O=C(NCCS)C1CCCN(C(=O)N2CCc3sccc3C2)C1 (configuration not stated),26.9%
4,CC1(C)Cc2c(cnn2-c2ccccc2)CN(C(=O)CCS)C1,42.4%
5,O=C(NCCS)c1ccn(CC(F)(F)F)c(=O)c1,35%
6,N#Cc1cnn(-c2cccc(C(=O)NCCS)c2)c1N,39.4%
7,O=C(CCNC(=O)c1cccc(Cl)c1)NCCS,28.9%
8,O=C(NCCS)c1nc2ccccc2nc1C1CC1,19.9%
9,O=C(NCCS)c1c[nH]c(=O)c(C(F)(F)F)c1,40.8%
10,O=C(CCS)NCCNC(=O)c1cnccn1,25.3%
11,CC(C)c1nc(CCNC(=O)CCS)n(C)n1,24.1%
12,O=C(NCCS)c1cc2ccccc2o1,42.1%
13,O=C(NCCS)C1CC(O)c2cc(F)ccc2O1 (configuration not stated),39.8%
14,CCCN1CCN(c2ccc(CN(C)C(=O)CCS)nn2)CC1,41.8%
15,O=C(CCS)Nc1cc(C(F)(F)F)ccc1N1CCCC1,30.1%
16,Cc1c(CC(=O)NCCS)c(-c2ccccc2)nc2ccccc12,30.1%
17,O=C(CCS)Nc1cccc(Br)c1,27.9%
18,CCC(CC)C(C(=O)NCCS)N1CCOCC1 (configuration not stated),31.9%
19,CN(Cc1ccn(C(F)F)n1)C(=O)CCS,36.1%
20,CN(C)c1ccc(C(=O)NCCS)cc1,41.3%
21,CN1CCN(c2cc(CNC(=O)CCS)ccn2)CC1,44.3%
22,Cc1nc2n(c(=O)c1CCNC(=O)CCS)CCCC2,32.7%
23,CC(C)c1oc(-c2ccccc2)nc1C(=O)NCCS,22.1%
24,O=C(CCS)Nc1cccc(OCCO)c1,47.1%

row,SMILES,percent labeling
1,O=C(Cc1cnc[nH]1)NCCS,26.5%
2,Cc1ccccc1C(C(=O)NCCS)C1CCCC1 (configuration not stated),21.5%
3,CC1(C)Oc2ccc(NC(=O)CCS)cc2O1,39%
4,O=C(NCCS)c1cc2ccc(Br)cn2c1,13.5%
5,O=C(CCS)NC1CC(=O)N(Cc2ccccc2)C1 (configuration not stated),35.1%
6,O=C(CCS)NC1CCC(CO)(CO)CC1,24.5%
7,O=C(NCCS)c1ccccc1-c1ncc[nH]1,35%
8,O=C(CCS)Nc1cccc(-c2nc(C3CC3)no2)c1,33.3%
9,COc1cccc(-c2c[nH]cc2C(=O)NCCS)c1,35.8%
10,O=C(NCCS)C1CCC(=O)N(CC(F)(F)F)C1 (configuration not stated),35.4%
11,COc1cc2nc(N3CCN(C(=O)CCS)CC3)nc(N)c2cc1OC,40.1%
12,O=C(CCS)N1CCN(C(=O)c2ccc(F)cc2F)CC1,48.8%
13,O=C(CCc1cc(Br)ccc1F)NCCS,31%
14,Cn1cc(Br)c(C(=O)NCCS)cc1=O,36%
15,Cc1ccc(C(=O)NCCS)c(Cl)n1,40.7%
16,O=C(CCS)NCCc1nc(-c2ccccc2)no1,35.5%
17,Cc1nnnn1-c1cc(F)cc(C(=O)NCCS)c1,51.1%
18,O=C(NCCS)c1ccc(-n2cnc3ccccc32)nc1,22.6%
19,Cc1ccc2c(CCNC(=O)CCS)c[nH]c2n1,34.6%
20,CC(C)n1cc(C2=CCCN(C(=O)CCS)CC2)nn1,26.5%
21,O=C(CCS)NCC12CC(Cc3ccccc3)(CO1)C2,35.8%
22,NC(=O)C1(N2CCN(C(=O)CCS)CC2)CCCCC1,38.3%
23,Cc1cc(NC(=O)CCS)nn1Cc1ccccc1Cl,46%
24,CN(Cc1nc2ccccc2c(=O)[nH]1)C(=O)CCS,35.6%

row,SMILES,percent labeling
1,O=C(NCCS)c1ccc(Cl)c(N2CCNC2=O)c1,47.9%
2,O=C(CCS)Nc1ccccc1CN1CCc2ccccc21,14.5%
3,CCCN(CCC)C(=O)c1ccc(NC(=O)CCS)cc1,41.6%
4,O=C(Cc1sc(-c2ccccc2)nc1-c1cccs1)NCCS,15.9%
5,O=C(CCCc1ccc2[nH]c(=O)[nH]c2c1)NCCS,48.4%
6,O=C(NCCS)C(c1ccncc1)C1CCCCC1 (configuration not stated),34.2%
7,O=C(NCCS)c1ccc(-n2ncc3ccccc32)c(Cl)c1,15.8%
8,Cn1cc(C(=O)NC2CCN(C(=O)CCS)CC2)cn1,46.4%
9,CCN(CC)C(=O)N1CCC(C(=O)NCCS)CC1,35.8%
10,CCn1c(=O)[nH]c(=O)c2c(C(=O)NCCS)cc(C3CC3)nc21,26.6%
11,CN(C(=O)CCS)C1CS(=O)(=O)C1(C)C (configuration not stated),34.3%
12,O=C(CCS)Nc1ccc(S(=O)(=O)CC2CCOC2)cc1 (configuration not stated),42.4%
13,NC(=O)NC1CCC(NC(=O)CCS)CC1 (configuration not stated),34.5%
14,O=C(CCS)Nc1cccc(-c2n[nH]c3c2CCC3)c1,46.9%
15,O=C(NCCS)c1cccc2[nH]c(C(F)F)nc12,27.8%
16,O=C(NCCS)C1CCCCC1c1nc2ccccc2[nH]1 (configuration not stated),31.8%
17,Cc1c(C(=O)NCCS)cccc1N1CCNC1=O,34.4%
18,O=C(CCS)NCC1(O)CC2CCC(C2)C1 (configuration not stated),35.1%
19,O=C(NCCS)c1cc2c(OC(F)F)cccc2[nH]1,27.2%
20,O=C(CCS)NC1CC(O)(C2(O)CCC2)C1 (configuration not stated),31%
21,Cc1oc2[nH]c(=O)n(-c3ccccc3)c(=O)c2c1C(=O)NCCS,14.7%
22,O=C(CCc1c(-c2ccccc2)[nH]c2ccc(F)cc12)NCCS,20.6%
23,CNC(=O)c1cccc(NC(=O)CCS)c1C,32.7%
24,O=C(Cc1coc2cc(Cl)ccc12)NCCS,35.7%

row,SMILES,percent labeling
1,Cn1c(C(F)(F)F)nc2cncc(C(=O)NCCS)c21,39.4%
2,O=C(CCS)N1CCCN(c2ccc(C(F)(F)F)cn2)CC1,41.5%
3,Cc1nc2cc(NC(=O)CCS)ccc2n1C,42%
4,CC(C)N1Cc2cccc(NC(=O)CCS)c2C1,47.7%
5,O=C(CCS)Nc1ccc(F)cc1OCC(F)F,34.7%
6,CCOc1cc(NC2CCN(C(=O)CCS)CC2)ncn1,45.5%
7,O=C(CCS)NCCOc1cn[nH]c1C(F)(F)F,37.3%
8,Cn1cc(NC(=O)CCS)c(=O)n(C)c1=O,39%
9,Cc1c(C)c2c(c(C)c1O)CCC(C)(C(=O)NCCS)O2 (configuration not stated),35.2%
10,O=C(NCCS)c1cc2c(Cl)cccn2n1,38.5%
11,Cc1ccc(C)c(-n2cnc3cc(C(=O)NCCS)ccc32)c1,27.8%
12,Cc1nn(C)c(C)c1CC(C)C(=O)NCCS (configuration not stated),27.7%
13,O=C(NCCS)c1cc(-c2ccccc2)nc2cc(Br)ccc12,14%
14,CC(C)c1cccc(-c2ccc(C(=O)NCCS)o2)c1,31.4%
15,CCOc1ccccc1-c1cccc(C(=O)NCCS)c1,24.9%
16,Cc1cc(CCCC(=O)NCCS)c(C)s1,23.2%
17,O=C(CCS)NC1CCC(N2CCCC2=O)CC1 (configuration not stated),33.6%
18,O=C(NCCS)C1(N2CCOCC2)CCCC1,33.6%
19,CC(=NOCC(=O)NCCS)c1ccc2c(c1)OCO2,23.9%
20,O=C(NCCS)C1CCCCC1c1nc2ccccc2s1 (configuration not stated),25.3%
21,O=C(NCCS)c1ccc(-c2nc3ccccc3s2)o1,29.5%
22,O=C(NCCS)c1c(Br)ccc(F)c1OC(F)(F)F,24.5%
23,Cc1cc(C(=O)NCCS)n(-c2ccccc2)n1,33%
24,O=C(CC(n1cccn1)C(F)(F)F)NCCS (configuration not stated),29.5%

row,SMILES,percent labeling
1,O=C(CCS)N1CCC(c2ccc3cccnc3n2)CC1,44.2%
2,CC(C)Cn1[nH]c(CC(=O)NCCS)cc1=O,15.2%
3,O=C(Cn1cnc2sc(-c3ccccc3)cc2c1=O)NCCS,0%
4,Cc1[nH]ncc1C(=O)NCCS,31.1%
5,O=C(CCS)NCc1nocc1-c1ccc(Cl)cc1,51.8%
6,Cc1nnc2ccc(C(=O)NCCS)cc2c1C,15.7%
7,O=C(NCCS)[C@@H]1OCCC[C@@H]1c1ccccc1,31.7%
8,CCn1c(=O)[nH]c2cc(C(=O)NCCS)ccc21,38.7%
9,O=C(COc1ccc(Br)cc1Cl)NCCS,29.1%
10,CC(=O)NCc1ccc(C(=O)NCCS)s1,43.7%
11,Cc1ccc(C(=O)NC(CC(=O)NCCS)c2ccccc2)cc1 (configuration not stated),14.3%
12,O=C(CCNC(=O)c1c[nH]c2ccccc12)NCCS,35.1%
13,O=C(COc1ccc2oc3c(c2c1)CCCC3)NCCS,20.1%
14,CN(C(=O)CCS)C1c2cc(Cl)cc(Cl)c2CC1O (configuration not stated),38.7%
15,O=C(Cc1ccc(F)c(Cl)c1)NCCS,28.3%
16,O=C(CCS)NCC1(COc2ccc(Br)cc2)COC1,30%
17,CC(C(=O)NCCS)c1ccc(Br)cc1 (configuration not stated),38.1%
18,Cc1cc(OCC(=O)NCCS)cc(C)c1Cl,24.3%
19,CN(C)Cc1ccoc1-c1n[nH]c(CNC(=O)CCS)n1,43.8%
20,O=C(CCS)NC1CCN(c2ccn[nH]2)C1=O (configuration not stated),36.3%
21,Cc1cc(=O)c(OCc2ccccc2)c(CNC(=O)CCS)n1C,35.2%
22,Cc1sc(C(N)=O)cc1NC(=O)CCS,50.5%
